This note sets out measurements from PMC4336329 (PLoS ONE, 2015).

Out of some 310,000 compounds screened, about 2,200 (0.71%) showed an effect of 50% or more. The effect is printed as a negative number. The list shows a part of the results.

Chain of human ether-à-go-go-related gene (hERG) potassium channel (Q12809 whole entry, looked up): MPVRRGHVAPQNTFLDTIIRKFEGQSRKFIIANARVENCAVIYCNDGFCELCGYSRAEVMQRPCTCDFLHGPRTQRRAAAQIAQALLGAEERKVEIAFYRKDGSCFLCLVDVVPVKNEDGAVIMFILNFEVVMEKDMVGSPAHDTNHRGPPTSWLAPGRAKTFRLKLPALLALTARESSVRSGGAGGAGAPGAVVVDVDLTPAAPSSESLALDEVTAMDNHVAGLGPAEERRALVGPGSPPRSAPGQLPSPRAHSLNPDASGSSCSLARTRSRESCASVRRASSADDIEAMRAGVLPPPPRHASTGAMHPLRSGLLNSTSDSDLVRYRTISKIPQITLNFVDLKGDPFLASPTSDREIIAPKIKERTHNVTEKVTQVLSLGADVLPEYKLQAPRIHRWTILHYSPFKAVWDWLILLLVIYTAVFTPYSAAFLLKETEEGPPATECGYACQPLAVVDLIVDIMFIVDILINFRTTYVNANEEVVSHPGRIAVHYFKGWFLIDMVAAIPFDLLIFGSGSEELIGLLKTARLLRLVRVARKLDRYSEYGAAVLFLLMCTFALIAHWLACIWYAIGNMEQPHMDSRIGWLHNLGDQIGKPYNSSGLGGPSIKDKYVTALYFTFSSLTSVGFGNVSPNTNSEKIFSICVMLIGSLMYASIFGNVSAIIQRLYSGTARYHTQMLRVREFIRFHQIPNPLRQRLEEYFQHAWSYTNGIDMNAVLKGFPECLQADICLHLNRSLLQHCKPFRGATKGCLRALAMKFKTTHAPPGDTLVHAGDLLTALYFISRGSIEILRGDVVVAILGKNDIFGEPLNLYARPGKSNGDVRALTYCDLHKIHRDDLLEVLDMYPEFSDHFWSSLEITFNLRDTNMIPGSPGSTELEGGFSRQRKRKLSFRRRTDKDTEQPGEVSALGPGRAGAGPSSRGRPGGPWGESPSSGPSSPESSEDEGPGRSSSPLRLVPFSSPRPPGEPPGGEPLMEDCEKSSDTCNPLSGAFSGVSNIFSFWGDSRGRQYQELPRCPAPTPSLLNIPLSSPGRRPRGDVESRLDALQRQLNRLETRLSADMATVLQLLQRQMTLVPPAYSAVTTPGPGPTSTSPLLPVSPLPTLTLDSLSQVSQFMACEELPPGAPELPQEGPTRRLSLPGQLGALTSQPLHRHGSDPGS

This assay has as its target human ether-à-go-go-related gene (hERG) potassium channel (human, UniProt Q12809). The assay can be described thus: primary screen, population patch clamp on CHO cells stably expressing hERG.
Regarding `CN1CCN(C(=S)NC(=O)/C=C/c2cccs2)CC1`, the “hERG current change (%, negative = inhibition) at 1uM” value is 4.13%.
Then `CSc1nccc(-c2c(-c3ccc(Cl)cc3)noc2C)n1`, with 7.37%.
To `CC(=O)Nc1cccc(Oc2cnc3ccccc3n2)c1` belongs -2.79%.
Then `Cc1c(S(=O)(=O)N2CCCC(C)C2)c(=O)n(C)c(=O)n1C` (stereo not shown), with 3.4%; and `O=C(N=Nc1c(O)[nH]c2ccc([N+](=O)[O-])cc12)c1ccccc1Cl`, with 10.8%; and `CCOc1cc(C2C(C(=O)O)c3cc(OCC)c(OCC)cc3C(=O)N2C)ccc1O` (stereo not shown), with 9.86%.
Consider `CCCN1CCN(C(=O)c2ccc3nc(CC)c(CC)nc3c2)CC1`, for which the “hERG current change (%, negative = inhibition) at 1uM” value came to 13.6%.
Regarding `O=C(NCc1ccccc1)N1CCC(c2nc3ccccc3[nH]2)CC1`, the “hERG current change (%, negative = inhibition) at 1uM” value worked out at 0.621%.
To `CC1CC(C)(C)N(C(=O)CN2C(=O)c3ccccc3C2=O)c2ccccc21` (stereo not shown) belongs 11.2%; to `CC(=O)Nc1ccc(OCC(=O)NCCc2ccc(Cl)cc2)cc1`, 10.9%.
To `Cc1ccccc1Oc1cc(-n2ncc(Cl)c(Cl)c2=O)ncn1` belongs 10.4%; to `COc1ccc(N2CCN(C(=O)CCc3ccc(S(=O)(=O)NCC(C)C)cc3)CC2)cc1`, -6.73%; to `CN(C)S(=O)(=O)c1cc(NC(=O)COC(=O)Cc2ccc(Cl)cc2Cl)ccc1Cl`, 7.82%.
Then `COc1ccccc1CNC(=O)C1CCCN1S(=O)(=O)c1cccc2cccnc12` (stereo not shown), with -2.06%; and `O=C(NCCCN1CCCC1)c1ccc2c(c1)N(Cc1ccccc1F)C(=O)c1ccccc1S2=O` (stereo not shown), with -2.51%; and `COc1cccc(C(=O)COc2ccc3c(C)cc(=O)oc3c2)c1`, with 1.14%.
On to `Clc1ccc(OCc2cc(-c3ccccc3)no2)cc1Cl`, for which the “hERG current change (%, negative = inhibition) at 1uM” value worked out at 16.2%.
To `Oc1ccccc1CNc1ccc(Br)cn1` belongs 9.74%.
Then `Cc1ccc(-c2c3c(=O)n(C)c(=O)n(C)c3cn2N2CCOCC2)cc1`, with -25.1%.
Then `COc1ccc(NC(=O)CN(c2ccc(C)cc2)S(C)(=O)=O)c(OC)c1`, with 4.53%.
Turning to `O=C(N/N=C/c1ccc([N+](=O)[O-])cc1)c1cc(C2CC2)[nH]n1`, the “hERG current change (%, negative = inhibition) at 1uM” value is -0.365%.
Then `COc1cccc(-c2cc(C(=O)NCc3ccco3)no2)c1`, with 10.1%.
Regarding `O=C(NCCCc1ccccc1)C1CC1`, the “hERG current change (%, negative = inhibition) at 1uM” value stood at 17.2%.
Turning to `Cc1cc(C)n2ncc(C(=O)NCCc3ccccc3)c2n1`, the “hERG current change (%, negative = inhibition) at 1uM” value came out at 4.72%.
To `CC(=O)C1=C(C)Nc2ncnn2C1c1ccc(F)cc1` (stereo not shown) belongs 16.7%; to `Cc1ccc(S(=O)(=O)NCCNc2ccccc2[N+](=O)[O-])cc1`, 9.2%.
Take `Cc1ccc(S(=O)(=O)N(C)C)cc1-n1c(SCC(=O)N(C)C)nc2ccccc2c1=O`: the “hERG current change (%, negative = inhibition) at 1uM” value is listed as 8.88%.
Take `CC(C)(C)C(=O)N1CCN(c2ccc([N+](=O)[O-])cc2Cl)CC1`: the “hERG current change (%, negative = inhibition) at 1uM” value was -5.53%.
To `COc1ccc(-c2c(C)n([O-])c3c([n+]2=O)CCCC3)cc1` belongs 5.38%.
Regarding `CCOc1ccc(CCNC(=O)c2cn(C)c3ccc(S(=O)(=O)N4CCOCC4)cc3c2=O)cc1OCC`, the “hERG current change (%, negative = inhibition) at 1uM” value is 10.1%.
To `Nc1ccc(Oc2ccc(Cl)cc2)cc1` belongs 27.1%; to `NC(=O)c1nsc(C(=O)N(Cc2cccnc2)C(C(=O)NC2CCCCC2)c2ccc(F)cc2)c1N` (stereo not shown), 8.14%.
Then `CCOC(=O)CSc1nc2c(c(-c3ccc(C)o3)c1C#N)CCCC2`, with 10.1%.
`O=C(COc1nncc2ccccc12)NCC(F)(F)F`: the “hERG current change (%, negative = inhibition) at 1uM” value was determined as 15.6%.
To `Cc1cccc(/C=N/NC(=O)c2ccc(NC(=O)c3ccc(F)cc3)cc2)n1` belongs 9.8%; to `Cn1nc(C(=O)OCc2ccc(Br)cc2F)c2ccccc2c1=O`, 12%.
Consider `COC(=O)c1c(C)oc(C)c1S(=O)(=O)NC(c1ccccc1)c1ccccc1`, for which the “hERG current change (%, negative = inhibition) at 1uM” value is 17.8%.
To `O=C(COC(=O)CSCC(=O)N1CCCCC1)NCc1ccc(F)cc1` belongs 11.2%; to `COCCNC(=O)C(c1ccc(OC)cc1)N(CCOC)C(=O)CCC(=O)Nc1nccs1` (stereo not shown), 10.2%; to `CCOc1ccc2c(c1)C(c1ccccc1)=NNC(c1ccccc1)=N2`, 10.5%.
Then `O=C(COC(=O)/C=C/c1ccc2c(c1)OCO2)Nc1ccccc1`, with 26%.
To `COc1ccc(-c2csc(NC(=O)CSc3nc(SC)ns3)n2)cc1` belongs 12.7%; to `CCC(=O)Nc1nc(=S)ss1`, 6.62%; to `CC1CCN(c2nc3c(c(=O)n(C)c(=O)n3C)n2CCSc2ncccn2)CC1`, 6.07%.
In the case of `Cc1ccc(C(=O)N(Cc2sccc2C)C2CCS(=O)(=O)C2)cc1` (stereo not shown), the “hERG current change (%, negative = inhibition) at 1uM” value came out at 6.55%.
Then `C=CCc1ccc(O)c(-c2ccc(O)c(CC=C)c2)c1`, with 2.28%; and `Cc1ccc([N+](=O)[O-])cc1NC(=O)c1ccc(CSc2ccccc2)cc1`, with 9.94%.
To `CCC(=O)c1ccc(OCC(=O)N2CCc3cc(OC)c(OC)cc3C2)cc1` belongs -3.59%; to `COC(=O)c1ccc(C2C(C(=O)c3cc4ccccc4o3)=C(O)C(=O)N2CCCN(C)C)cc1` (stereo not shown), 13.7%.
With `COc1ccc(-c2[nH]c(-c3ccccc3)nc2SCC(=O)NCc2ccco2)cc1OC`, the “hERG current change (%, negative = inhibition) at 1uM” value amounted to 4.09%.
To `Cc1ccc(CC(CC(=O)Nc2cccc(C(F)(F)F)c2)C(=O)O)cc1` (stereo not shown) belongs 17.1%.
As for `COc1ccc(C2OC(=O)CC2C(=O)NCc2ccc(C)cc2)cc1OC` (stereo not shown), the “hERG current change (%, negative = inhibition) at 1uM” value is on record as -17%.
Then `CNS(=O)(=O)c1ccc2nc(NC(=O)c3ccc(N4C(=O)CCC4=O)cc3)sc2c1`, with 0.228%; and `CCCc1ccc(OCc2ccccc2)c2c(=O)cc(C(=O)OCC)oc12`, with 14.4%; and `CC(C)CC(=O)Nc1ccc(F)c(Cl)c1`, with -9.41%.
For `OCc1c[nH]c2ccccc12`, the “hERG current change (%, negative = inhibition) at 1uM” value is given as 8.87%.
Then `COc1cc(NS(=O)(=O)c2ccc(NC(C)=O)cc2)nc(OC)n1`, with 8.07%; and `Nc1c(S(=O)(=O)c2cccs2)c2nc3ccccc3nc2n1Cc1ccccc1`, with -0.921%.
As for `CCOC(=O)NC(=O)CSc1nnc(C2CC2)n1Cc1ccco1`, the “hERG current change (%, negative = inhibition) at 1uM” value is recorded as 15.7%.
To `COCCn1c(-c2ccc(C#N)cc2)nc2c1c(=O)[nH]c(=O)n2Cc1ccccc1` belongs -1.59%; to `COc1ccccc1CNc1cc(C)ccc1C`, 8.16%; to `Cc1cc(CSc2ccccc2)ccc1NC(=O)c1ccc(CN2CCOCC2)cc1`, 11%.
Turning to `Cc1cc(C)c(N(C(=O)CN2C(=O)c3ccccc3S2(=O)=O)C(C(=O)NCC2CCCO2)c2ccc(F)cc2)c(C)c1` (stereo not shown), the “hERG current change (%, negative = inhibition) at 1uM” value came out at 8.04%.
Then `Cc1ccccc1NC(=O)COC(=O)c1cccnc1`, with 1.07%.
Then `CCOc1ccc(S(=O)(=O)N2CCCCC2)cc1NC(=O)Cc1ccccc1`, with -6.82%; and `COc1ccc(CCNC(=O)CN(C)S(=O)(=O)c2cccs2)cc1OC`, with 5.76%.
Then `CC1(c2ccc3c(c2)OCO3)NC(=O)N(CC(=O)NCCC2=CCCCC2)C1=O` (stereo not shown), with 4.2%; and `COc1ccc(C(=O)N2CCN=C2SCc2cccnc2)c(OC)c1`, with -1.04%; and `N#Cc1ccsc1NC(=O)c1ccccn1`, with 6.27%.
`O=C(NCc1ccccc1Cl)C1CCN(S(=O)(=O)c2cccs2)CC1`: the “hERG current change (%, negative = inhibition) at 1uM” value is listed as -32%.
To `O=C(CNC(=O)c1ccccc1)OCCOc1cccc(Cl)c1` belongs 1.87%.
Then `O=C(Nc1cccc(F)c1)C1CCCN1S(=O)(=O)c1cccc2cccnc12` (stereo not shown), with -1.05%; and `COc1cc(NC2c3ncccc3C(=O)N2Cc2ccco2)cc(OC)c1` (stereo not shown), with 3%; and `CC(C(=O)Nc1cccnc1)c1ccc([N+](=O)[O-])cc1` (stereo not shown), with -0.0094%.
In the case of `Cc1nc(NCCc2ccccc2)sc1C(=O)O`, the “hERG current change (%, negative = inhibition) at 1uM” value is 21.2%.
Turning to `COc1ccccc1NC(=O)CSc1nnc(CNC(=O)c2ccccc2F)o1`, the “hERG current change (%, negative = inhibition) at 1uM” value was 13.6%.
Take `O=C(NNC(=O)c1ccc(-n2cncn2)c([N+](=O)[O-])c1)c1ccc(Cl)cc1`: the “hERG current change (%, negative = inhibition) at 1uM” value was 12.9%.
To `Cc1ccc(CCNC(=O)C2CCN(S(=O)(=O)c3ccc4c(c3)oc(=O)n4C)CC2)cc1` belongs 16%; to `CCN(CC)CCOC(=O)c1ccc(NC(=O)CNC(=O)c2ccccc2)cc1.Cl`, 15.7%.
Then `CCOC(=O)N1CCN(c2c(N3CCN(c4ccc(F)cc4)CC3)c(=O)c2=O)CC1`, with -44.3%.
Turning to `CC(SCC(=O)Nc1ccc(F)cc1)c1nc2ccccc2c(=O)[nH]1` (stereo not shown), the “hERG current change (%, negative = inhibition) at 1uM” value was found to be 16.2%.
Then `Cc1cc2nc(CCN(C(=S)NCC(C)C)C3CCCC3)[nH]c2cc1C`, with -6.3%.
With `CCOC(=O)Cc1c(Cl)c2ccccc2[nH]c1=O`, the “hERG current change (%, negative = inhibition) at 1uM” value is reported as 7.69%.
Then `O=C(O/N=C(\c1ccccc1)c1ccccn1)c1ccc(Cl)c(Cl)c1`, with 12.9%; and `Cc1ccc(NC(=O)CC(=O)Nc2ccc(C)cc2C)c(C)c1`, with 15.6%.
Consider `CCN(CC)CCNC(=O)c1cc2c(s1)-c1ccccc1SC2`, for which the “hERG current change (%, negative = inhibition) at 1uM” value was -34.1%.
Take `CCOC(=O)C1(CCOC)CCN(C(C)CCc2ccc(OC)cc2)CC1` (stereo not shown): the “hERG current change (%, negative = inhibition) at 1uM” value is reported as -43%.
Regarding `COc1cc(NC(=O)c2cccs2)c(C(=O)OCC(=O)NC(=O)NC(C)(C)C)cc1OC`, the “hERG current change (%, negative = inhibition) at 1uM” value is given as 6.34%.
